Results published in the supplement of paper PMC3334620.
The full ranking holds about 33,000 sequences; the median of “E-score (-0.5 to 0.5)” is about -0.054, and the highest 2% start at about 0.39. The list shows a part of the results.

These sequences were tested against Ylr278c (UniProt Q05854) (assay: PBM E-score (8-mer binding enrichment) (E-score (-0.5 to 0.5)); higher = stronger / more preferred TF binding; most listed sequences are background and not binding sites). Conditions: protein concentration: 200 nM; construct: GST-DNA-binding domain.
In short: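 Bound GST-tagged yeast transcription factors, applied at about 100-200 nM to double-stranded universal all-10-mer Agilent arrays, were detected with fluorescent anti-GST. Scans were normalised with masliner. A modified Wilcoxon-Mann-Whitney statistic, the E-score, was assigned to each ungapped eight-base word pooled with its reverse complement by the Universal PBM Analysis Suite.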

Sequence | PBM E-score
CATTATTC | 0.0127
GGGAAGAA | -0.2
ACACAAGG | -0.177
ATAGGTCG | -0.0605
ATGCCCAT | -0.34
ACTGCACA | -0.186
CATCGTCG | 0.00894
CGAAGACC | 0.152
CTCTTAAG | -0.161
AGTCGCCA | -0.199
ATCCCCGG | 0.425
CTTTGAGC | -0.21
ATCGGACG | 0.357
GGTGAAGA | -0.0845
ACTAGCGG | 0.174
CAAGGAAA | 0.00964
TAGAGTCA | -0.243
ATGCTCCC | -0.0848
GTTTTCCA | 0.00849
TATGTTAA | -0.174
GGCCCTGA | -0.0923
CGCGACTA | 0.142
AAAAGACT | -0.172
AATGTCAT | 0.00877
GACGAGAC | -0.0931

Sequence | PBM E-score
CGCTCTAA | -0.0974
ATACAGCA | -0.0117
TACTTGGA | -0.175
GTGACGGA | 0.314
CAGCCGGG | 0.166
CGCAGGAC | 0.0789
CATATATG | -0.306
TAGGGCCA | -0.36
AAAAGTTG | -0.0843
TAGGCTGA | -0.216
CGCCAATC | -0.0557
ACCGTCAG | -0.0957
CAAACTCA | -0.0703
CCCACTCG | -0.00429
ATTAGTTC | 0.0141
ACCTTTCC | 0.151
CGAGGGGC | -0.089
TACGGTGA | -0.00183
GCCAGGGC | -0.0673
CTCTGCCC | -0.131
AAGGACTA | -0.244
AGCGGGCC | 0.113
CGCCCTCC | 0.266
CCGAACAA | 0.309
AAGGTTGA | -0.119

Sequence | PBM E-score
CTCAGCAG | -0.262
CGTTCACA | -0.0721
CACCAGGA | -0.0445
AATCTAGT | 0.0968
AGGGGGAA | -0.161
ACTTCTTC | -0.0177
TCAGAAAA | -0.277
CCTGCTGA | -0.057
CCCCTCTA | -0.309
AAGGTCAC | -0.209
AACTACAG | -0.0238
GAGCAAGC | 0.0425
CGTATTAC | 0.118
GACCCTAA | -0.0817
GAGTTTAA | 0.138
CGCTTGAC | -0.0143
ATTCAGGG | -0.0722
CGCATTGA | 0.122
CTCTGAAC | -0.357
CGGATGAC | 0.225
AAAGCTAA | -0.102
GGACCTGA | 0.0691
ATGCAGGG | -0.158
CGATCGCA | 0.149
AGGTCCGC | 0.333

Sequence | PBM E-score
CGCTGGGC | -0.0443
ACAAATAA | -0.073
CCACTCGC | 0.0161
CAGTCGGG | 0.159
TACGCACA | -0.295
AGGATGCA | -0.243
ATCCGTTA | 0.277
AGTAATCA | -0.0652
CAAAGACA | -0.0424
ACGTCCTA | 0.0267
GAACGCAC | -0.0241
TATTCGGA | 0.408
GAACCGGA | 0.426
CGACCGAC | 0.159
TGGGCGAA | -0.0681
ACAAATTG | -0.0518
ATATCCGG | 0.413
CCTGGTTA | -0.206
TCTCAGCA | -0.355
GCTATCAC | -0.108
GTACGCGA | -0.193
TGGCCACA | -0.188
ACCTTTTG | 0.009
CTCCAGTC | -0.0598
AGTGAGGG | -0.159

Sequence | PBM E-score
CGGAAACG | 0.271
ACGGCATA | 0.082
ATCCACTC | 0.0469
TCGAGCCA | -0.192
AACAGTTG | -0.134
ATTAGCGC | 0.0787
ACCCGCCT | -0.173
AAGGACTC | -0.104
AAACGTAG | -0.252
GCAATTAA | 0.0805
AAGGAGAG | -0.219
CAAACATA | -0.233
ATGTTCGG | 0.229
ACGTGATC | -0.0011
CTATACTA | 0.0464
AGACCAAA | -0.111
ACCTAACT | 0.0471
GATGTGGA | 0.169
GAATCCGA | 0.368
AGGTGAAC | -0.172
CTTCGTAC | -0.0723
CCTCAACG | -0.289
GACCCCCA | -0.271
ATCATTCC | 0.114
CTACAAAC | -0.191

Sequence | PBM E-score
AATCTCGC | -0.00098
AAGCACAA | -0.126
CAGCATTA | -0.178
CTAGCCAG | -0.299
GGCTATAC | 0.00804
AACTTTTG | 0.0152
AAGCCGAC | 0.286
AGGCCCAC | -0.337
AACTTGGA | -0.0692
CCACCTCC | 0.231
ACTTCCGA | 0.378
CGTTCAGC | -0.0765
GAATACGC | 0.0561
ACCGTCAA | 0.0593
AACCGCGA | 0.209
AGGGCGAC | 0.0545
GGGATGAC | 0.0341
CGTCATAG | -0.102
GAACATAA | 0.00938
TCACCGCA | 0.0213
CCAGCTGG | 0.0193
GCCTAAAC | -0.212
ATGGCCGA | 0.19
GGCGGCAA | 0.225
TCGGGTAA | 0.0517

Sequence | PBM E-score
CGGCCTGC | 0.0762
AGCGCGTG | -0.189
GCGGAGAC | 0.4
AGTAGTGC | 0.0423
CGGAAGCC | 0.325
AGTGGCGA | -0.0275
GCAACATA | -0.273
GTGTCTGA | -0.222
GCGAAGAA | -0.033
GTGTCCTA | -0.108
ATTCCACG | 0.0567
TGACACCA | -0.25
TCCGCACA | 0.28
CGTGGCGA | 0.0245
ATAAAAAA | 0.0089
GGGTACTA | -0.148
AACGTTAG | -0.0215
CACTCCTA | -0.0698
CTAAATTC | 0.0538
CGGTTCAC | 0.0104
GACTAAGA | 0.0539
AAGACGTA | -0.154
AAGCGGAT | 0.327
ATGAGGTA | -0.15
ATCAGTTA | -0.0392

Sequence | PBM E-score
CTTTTCTA | -0.251
ACGATGAT | -0.139
AGGTGGAT | -0.184
CTTCTAAA | -0.149
TAGACTGA | -0.142
CGATCCAG | -0.048
GTTCGGCA | 0.134
ACTCACCA | -0.189
ACGCTGAG | -0.252
AAAATACC | 0.188
AAGACCCC | -0.0799
TAATGGAA | 0.0688
CGAATCAC | -0.133
GTGTTCTA | 0.0211
ACGGCGTA | -0.00977
ATTTGAGA | -0.0679
AAGGAACC | 0.148
AAAAGTAT | -0.0537
AATCAACC | -0.0639
AGAAGTGC | -0.121
AGCAAGCT | -0.33
CTAAGAGC | -0.113
AACCTCGA | -0.0626
ATCCATTG | -0.0844
GGCATGGA | 0.108

Sequence | PBM E-score
AGCGCCAG | -0.0532
CTGAATGC | -0.122
ACTCAGGC | -0.0826
CCTGTCAA | -0.208
AGCACCCT | -0.199
GTTATGTA | 0.116
AGGAGCTG | -0.139
AAGGGCGA | -0.139
TCCAGGGA | -0.304
CACACTCC | 0.144
ACAGGGCG | 0.0649
ATCCCGTG | 0.212
AACATATC | 0.113
CGGGAGAC | 0.302
GCTCGGGA | 0.174
ATGTGTGA | -0.173
ATCTTTCC | 0.0916
GATACGTA | -0.127
AAGTAATC | 0.02
CCATGCCA | -0.0742
AGTGAAAG | -0.155
CAAGGTCA | -0.234
ATTCTCGC | -0.163
CAGGATAG | -0.156
AGGTGCCC | 0.0203

Sequence | PBM E-score
ATGAACAT | -0.101
CAAACTAG | -0.237
ATCTTGGC | -0.056
GAACAGTC | -0.0473
AGAAAGAG | -0.0989
CCCGTTTC | 0.167
CGCCCAAG | -0.00663
TCGAATAA | -0.0837
CCAGACAC | -0.222
CTCGGTCC | 0.156
CGGTTACA | 0.136
CATTACCC | 0.0896
CGTGATAG | -0.00468
CATCGCCC | -0.0556
CTAAACTA | -0.0546
ACAGGCTA | -0.248
TGATTAAA | -0.0593
ACCGAGAT | 0.184
ATTTTAAG | -0.118
AAGGGCGT | -0.102
AGGTAACG | -0.0647
CATTTTCG | 0.173
CACTCTCG | 0.0147
GGATAGAA | 0.081
CCTGCGAG | -0.0873

Sequence | PBM E-score
GCTAGACA | -0.159
GCCCTGCA | -0.0979
CGGCTGTA | 0.0129
CTCCTGAA | 0.238
AACCGAAG | -0.018
AGACGTAA | -0.152
AAGATACC | 0.0802
AAACTGAA | -0.00825
ACGACCGG | 0.301
AAGGGTTC | -0.0754
ACTTATTG | -0.136
ATTATGTG | 0.00779
ATGTCGTC | -0.0816
ACTTCGCC | 0.132
CGAGTTCA | -0.156
AAGGATAC | -0.0644
GGGCCTAA | -0.0784
CCTTTACA | -0.159
CCACGATA | -0.0921
CTCTAATA | -0.161
ACCTCGTG | -0.187
AACAGCCA | -0.147
ATTGGAAC | -0.0837
AATGACCT | -0.188
CCATGGAA | -0.201

Sequence | PBM E-score
GTGTGGAA | 0.0229
CTCTGTTA | -0.109
CTACATCA | -0.0771
TAGTATCA | 0.0781
AGGTGATG | -0.201
GAAAGGAA | 0.0898
GCACTGTA | -0.111
CTGACCAG | -0.286
ATAGACGG | 0.195
AGCGAGAG | 0.0233
AGTAGAGG | -0.395
TAACTGTA | -0.257
AGTTACGC | -0.127
GCCACGAC | 0.114
ACCTAATC | -0.0418
AAAGATAT | 0.00155
GAATGCCC | 0.0461
ATGTGGAG | 0.0389
CACGCCCG | 0.179
CCAGATTC | 0.0544
TCGCAGCA | -0.222
GAAACATC | -0.159
ATTGCGCG | 0.303
GGAAGCAA | 0.0252
GACACGGC | 0.174

Sequence | PBM E-score
ATCATTTA | -0.0754
CATAAGGC | 0.0151
AATACAGT | -0.118
CTCACGTA | -0.167
AAGTTTAA | -0.188
AAAGGGTT | -0.111
CGAACGTC | -0.0941
ACATACAA | -0.0587
GACCTGCA | -0.294
AAACCCTG | -0.095
CACTCGGG | 0.178
CCCCAGCG | -0.156
TACCCCAA | 0.00366
AGGTGCTG | -0.0925
AAAATTAG | 0.181
AACGAGAC | 0.0299
CATACAAA | 0.0558
CATCCGTC | 0.116
AGATTGCC | 0.0821
CGACAATA | 0.104
TCGCATAA | -0.041
GTGATACA | -0.151
ATGCCTGA | -0.0953
ATTAGCCC | 0.113
CTCCCAAG | -0.115

Sequence | PBM E-score
GTCCTTCA | -0.0346
AAGGACTT | -0.0763
AGCCTCAT | -0.0515
ATCTCATC | -0.0791
CGAACCCA | -0.0331
AAACTCTC | 0.104
CATGGTTA | -0.134
CTGTACGA | -0.176
AGTGTGAG | -0.25
CAAATCCA | -0.0454
CGCCACCG | 0.131
AAGGGTCT | -0.155
CTTGGATA | 0.0652
ACCAGTAG | -0.147
ATTGGCGA | -0.288
GTTTAGGA | -0.122
AGAGCGGA | 0.254
AATCACCT | -0.0602
AGCAGAGC | -0.226
